No constants are given. Whether binding was seen depends on the method and setting. Binding seen in cells or lysates may run through a third protein. Some binding calls cover weakened binding; strength is not graded here.
Target: T1, Smc3 S72C (S. cerevisiae) (UniProt P47037)
T1 sequence: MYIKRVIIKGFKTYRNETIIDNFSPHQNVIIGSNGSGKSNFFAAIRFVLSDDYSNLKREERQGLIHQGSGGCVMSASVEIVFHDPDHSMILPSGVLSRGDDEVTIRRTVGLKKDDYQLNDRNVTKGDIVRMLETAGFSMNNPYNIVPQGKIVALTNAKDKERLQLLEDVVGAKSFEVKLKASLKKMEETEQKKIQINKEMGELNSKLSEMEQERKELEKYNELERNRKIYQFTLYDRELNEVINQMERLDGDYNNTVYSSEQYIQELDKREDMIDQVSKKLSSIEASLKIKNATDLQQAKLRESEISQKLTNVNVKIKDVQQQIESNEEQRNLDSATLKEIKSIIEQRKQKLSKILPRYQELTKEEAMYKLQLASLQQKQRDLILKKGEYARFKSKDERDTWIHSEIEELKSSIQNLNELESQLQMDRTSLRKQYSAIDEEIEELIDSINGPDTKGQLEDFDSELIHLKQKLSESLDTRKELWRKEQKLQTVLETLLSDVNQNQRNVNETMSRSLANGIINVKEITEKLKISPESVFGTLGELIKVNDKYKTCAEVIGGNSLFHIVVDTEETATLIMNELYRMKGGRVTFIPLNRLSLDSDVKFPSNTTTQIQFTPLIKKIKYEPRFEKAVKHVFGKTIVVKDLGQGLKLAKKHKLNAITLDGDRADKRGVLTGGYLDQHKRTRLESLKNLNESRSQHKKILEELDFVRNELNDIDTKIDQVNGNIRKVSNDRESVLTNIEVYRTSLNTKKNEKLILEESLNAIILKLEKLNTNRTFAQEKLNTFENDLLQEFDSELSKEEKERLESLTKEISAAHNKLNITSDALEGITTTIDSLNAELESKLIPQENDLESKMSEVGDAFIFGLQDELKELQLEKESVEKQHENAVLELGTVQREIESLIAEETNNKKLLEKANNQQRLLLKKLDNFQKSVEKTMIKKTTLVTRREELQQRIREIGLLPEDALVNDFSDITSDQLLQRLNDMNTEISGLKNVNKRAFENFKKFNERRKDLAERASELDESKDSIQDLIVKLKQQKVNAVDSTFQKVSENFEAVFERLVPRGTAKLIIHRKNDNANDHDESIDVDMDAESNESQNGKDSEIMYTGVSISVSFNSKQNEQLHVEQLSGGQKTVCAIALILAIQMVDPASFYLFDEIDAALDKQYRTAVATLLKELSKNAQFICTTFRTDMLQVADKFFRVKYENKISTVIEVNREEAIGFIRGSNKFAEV
Experiment: cross-linking; in vivo BMOE cross-link of cysteine pairs in exponentially grown yeast cells (on ice, 6 min); Scc1-PK immunoprecipitated, western blot

B1: Scc2 E819C (natural protein, S. cerevisiae, UniProt Q04002 1-1493, looked up)
chain: MSYPGKDKNIPGRIIEALEDLPLSYLVPKDGLAALVNAPMRVSLPFDKTIFTSADDGRDVNINVLGTANSTTSSIKNEAEKERLVFKRPSNFTSSANSVDYVPTNFLEGLSPLAQSVLSTHKGLNDSINIEKKSEIVSRPEAKHKLESVTSNAGNLSFNDNSSNKKTKTSTGVTMTQANLAEQYLNDLKNILDIVGFDQNSAEIGNIEYWLQLPNKKFVLTTNCLTKLQMTIKNITDNPQLSNSIEITWLLRLLDVMVCNIKFSKSSLKMGLDDSMLRYIALLSTIVLFNIFLLGKNDSNLHRESYIMEPVNFLSDLIESLKILTIEYGSLKIEFDTFQEALELLPKYIRNGPFLDDNVTAKLVYIFSDLLMNNDIEATTNIQFQSFWDNVKRISSDILVSLFGSFDQQRGFIIEELLSHIEKLPTKRIQKKLRKVGNQNIYITDFTFTLMSMLENINCYSFCNQMKDIAPENIDLLKNEYKKQEEFLFNIVEHINDTILERFFKNPSALRYVIDNFVQDLLLLISSPQWPVTEKILSSLLKRLLSVYSPSMQVSANIETICLQLIGNIGSTIFDIKCSTRDHEDNNLIKMINYPETLPHFFKSFEECIAYNETIKCRRSATRFLWNLRLGTILILEEYTKDAKEQIITVDNELKKILEQIKDGGLGPELENREADFSTIKLDYFSILHAFELLNLYDPYLKLILSLLAKDKIKLRSTAIKCLSMLASKDKVILSNPMVKETIHRRLNDSSASVKDAILDLVSINSSYFEFYQQINNNYNDDSIMVRKHVLRINEKMYDETNDIVTKVYVIARILMKICDEEDNIIDMARLILLNRWILKVHEVLDQPEKLKEISSSVLLVMSRVAIMNEKCSQLFDLFLNFYLLNKEAHSKEAYDKITHVLTILTDFLVQKIVELNSDDTNEKNSIVDKQNFLNLLAKFADSTVSFLTKDHITALYPYMVSDEKSDFHYYILQVFRCTFEKLANFKQKFLYDLETTLLSRLPKMNVREIDEAMPLIWSVATHRHDTARVAKACSSCLSHLHPYINKANNEEAAIVVDGKLQRLIYLSTGFARFCFPKPSNDKIAFLQEGETLYEHITKCLLVLSKDKITHVIRRVAVKNLTKLCGNHPKLFNSRHVLHLLDKEFQSDQLDIKLVILESLYDLFLLEERKSVRNTGVNSTLSSNSILKKKLLKTNRVEFANDGVCSALATRFLDNILQLCLLRDLKNSLVAIRLLKLILKFGYTNPSHSIPTVIALFASTSQYIRHVAYELLEDLFEKYETLVFSSLSRGVTKAIHYSIHTDEKYYYKHDHFLSLLEKLCGTGKKNGPKFFKVLKRIMQSYLDDITDLTSTNSSVQKSIFVLCTNISNITFVSQYDLVSLLKTIDLTTDRLKEVIMDEIGDNVSSLSVSEEKLSGIILIQLSLQDLGTYLLHLYGLRDDVLLLDIVEESELKNKQLPAKKPDISKFSAQLENIEQYSSNGKLLTYFRKHVKDT
notes: Scc2, S. cerevisiae; source: S. cerevisiae W303, in vivo, whole-cell extract
binding: binds
